According to PubChem BioAssay AID1240 (Sanford-Burnham Center for Chemical Genomics, 2008):
Out of some 50,000 compounds screened, about 800 (1.6%) showed an effect of 50% or more. The list shows a part of the results.

These molecules were tested against Bcl-2-like protein 10 (Homo sapiens) (UniProt Q9HD36) (assay: Phenotype converters, Bcl-B/TR3 peptide binding displacement, primary biochemical FP (AID 1240;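 further: 0% = Bcl-B with tracer peptide and DMSO and 100% = tracer peptide lacking Bcl-B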)). Settings: GST-Bcl-B / FITC-TR3 peptide fluorescence polarization; stronger effect = higher value; compound at 3.75 mg/L.
Chain of UniProt Q9HD36 (Q9HD36 whole entry, looked up): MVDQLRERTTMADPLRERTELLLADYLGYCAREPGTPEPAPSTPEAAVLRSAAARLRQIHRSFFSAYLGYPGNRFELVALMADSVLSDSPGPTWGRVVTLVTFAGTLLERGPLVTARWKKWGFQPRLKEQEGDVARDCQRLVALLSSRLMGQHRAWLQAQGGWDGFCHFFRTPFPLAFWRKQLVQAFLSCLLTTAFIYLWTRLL

SMILES | displacement [%]
O=C(c1ccccc1O)N1N=C(c2ccc(F)cc2)CC1(O)C(F)(F)F (stereo unspecified) | 6.1
CC/C(=N\N1CCN(Cc2ccc(Cl)cc2)CC1)c1ccc(O)cc1 | -5.8
Cc1cc(C)cc(OCCCN2CCN(C)CC2)c1 | -12.3
CC(=O)Oc1ccc(/C=C2\C=C(c3ccc(C)cc3)OC2=O)c(OC(C)=O)c1 | -10.2
C(=N/Nc1nc2ccccc2o1)/c1ccc(N2CCOCC2)cc1 | 8.6
O=C(Nc1cccnc1)C1(c2ccccc2)CCCC1 | -3.2
CCN(CC)c1ccc(N=Cc2c(O)n(C)c(=S)n(C)c2=O)cc1 | -18.4
O=c1[nH]c2ccccc2c(O)c1-c1ccccc1[N+](=O)[O-] | -1.5
COc1cc(/C=C2/C(=O)NC(=O)N(C)C2=O)ccc1OCC(=O)O | -22
CC(C)(C)NC(=O)c1cnn(-c2ccccc2)c1NC(=O)c1ccccc1 | 1.8
Cc1ccc(-c2csc(Nc3cccc4ccccc34)n2)cc1C | 10
CCNC(=O)N1c2cc(C)ccc2C(C)=CC1(C)C | -9.9
COc1ccc2nc(SC)nc(C)c2c1 | 10.5
O=C(N/N=C/c1ccccc1[N+](=O)[O-])c1cccc(Cl)c1 | -7.2
CC(O)c1cccc(NC(=O)c2cc3n(n2)C(C(F)(F)F)CC(c2ccc(F)cc2)N3)c1 (stereo unspecified) | 6.2
COCCCNC(=O)COc1ccc(C)cc1 | 11.4
C(=N\N=C(c1ccccc1)c1ccccc1)/c1ccccn1 | -9.6
CS(=O)(=O)Nc1ccc(S(=O)(=O)N2CCCCC2)cc1 | -8.5
COc1ccc(Br)cc1/C=C/C(=O)c1ccc(Cl)cc1 | 10.8
C/C(=N\OCC(=O)N/N=C/c1ccc(C)cc1O)c1cccs1 | -4.4
COC(=O)Nc1sc(C)nc1-c1ccccc1 | 3.2
O=C(c1ccc2c(c1)OCCO2)C1CCCCC1 | 1.6
Cc1cc2c(cc1[N+](=O)[O-])-c1c(ssc1=S)C(C)(C)N2 | 41.3

SMILES | displacement [%]
Cc1cccc(C(=O)Nc2sc(C)c(C)c2C(N)=O)c1 | -10.1
CC1(C)CC(=O)C2=C(C1)NC(SCc1ccccc1)=C(C#N)C2c1ccc(Cl)cc1 (stereo unspecified) | -21.7
O=C(Cc1ccccc1)NC(c1ccc(Cl)cc1)c1c(O)ccc2ccccc12 (stereo unspecified) | -11.2
Cc1ccc(NC(=O)C(C)Sc2ccc(Cl)cc2)c(C)c1 (stereo unspecified) | 1.6
COc1cccc(NC(=O)C(=O)N/N=C/c2ccc(O)c(OC)c2)c1 | 7.2
COc1ccccc1CN1CCN(Cc2ccccn2)CC1 | -28.3
CCOC(=O)c1c(N)sc(C)c1-c1ccc(C(C)(C)C)cc1 | 0
CCOc1ccc(/C=C2/SC(=S)N(C)C2=O)cc1 | -0.3
O=C(CCCOc1ccc(Cl)cc1Cl)NCCCn1ccnc1 | 15.5
O=C1CC(Nc2ccc(N3CCOCC3)cc2)C(=O)N1c1ccccc1F (stereo unspecified) | 1.4
CCOC(=O)N1CCN(C(=O)/C(=C\c2cccs2)NC(=O)c2cccs2)CC1 | 0.8
CC(NC(=O)c1cccc2ccccc12)C(=O)O (stereo unspecified) | 17.4
O=S(=O)(c1ccc(Br)c2ccccc12)N1CCCc2ccccc21 | 2.5
COc1cc(C(=O)Nc2ccc(C)c(Cl)c2)cc(OC)c1OC | 1.9
CCOc1ccccc1NC(=O)C(=O)NCC1CCCO1 (stereo unspecified) | 15.3
CCCN1C(=O)c2cccc3c(S(=O)(=O)N(C)C)ccc1c23 | -1
CC1(C)CC(=O)C=C(NNC(=O)c2ccc(O)cc2)C1 | 18.2
O=C(NCc1ccc(Cl)cc1)C(=O)NN=C1CCCCC1 | 8.7
CCCOC(=O)c1c(NC(=O)c2cccc(OCC)c2)sc2c1CCC2 | 22.8
Cc1ccc(NC2CC(=O)N(c3ccc(C)cc3)C2=O)cc1 (stereo unspecified) | 8.6
Cc1cc(OCC(=O)Nc2cc(Cl)ccc2Cl)ccc1Br | -5.1
Cc1ccc(C(=O)N/C(=C\c2cccs2)C(=O)NCC(C)C)cc1 | 9.3
O=C(O)C1C2C=CC(C2)C1C(=O)Nc1ccc(Br)cc1F (stereo unspecified) | 9.1

SMILES | displacement [%]
O=C(COc1ccccc1[N+](=O)[O-])NCc1ccco1 | 0.1
O=S(=O)(NCc1ccco1)c1ccc(Cl)c(Cl)c1 | 10
CCc1ccc(S(=O)(=O)Nc2ccc(OC(=O)c3ccc(Cl)cc3)cc2)cc1 | -1.9
CCCCN(CC)c1cnn(-c2ccccc2)c(=O)c1N | 10.6
COc1ccc(/C=N/NC(=O)c2ccncc2)cc1Br | 12
CC1=C(C(=O)OC(C)C)C(c2ccccc2F)NC(=S)N1 (stereo unspecified) | 2
Cc1ccc(/C=N/NC(=O)C(O)c2ccccc2)cc1 (stereo unspecified) | 7.5
Cc1oc2ccc(OCC(=O)c3ccccc3)cc2c1C(=O)O | 6.8
O=C(Cc1ccc(Br)cc1)Nc1ccc(F)cc1 | 3.3
CC1=Nc2ccccc2/C1=C\c1sc(=S)n(-c2cccc(F)c2)c1O | -1.7
COc1ccc(C(=O)Nc2ccc(Br)cn2)cc1OC | 5.1
COC(=O)c1sc(NC(=O)c2sc3cc(C)ccc3c2Cl)c(C#N)c1C | -0.9
CCC(=O)Nc1ccc(NC(=O)c2cc(OC)c(OC)c(OC)c2)cc1 | -9.7
COc1ccc(C(=O)Oc2cccc3c(OC)ccc(C=O)c23)cc1 | 8.1
CCOC(=O)c1cccc(NC(=O)COc2ccc([N+](=O)[O-])cc2)c1 | 8.1
Cc1c(C(=O)O/N=C(\N)c2ccccn2)cccc1[N+](=O)[O-] | 13
CCOc1ccc(C2/C(=C(\O)c3ccccc3)C(=O)C(=O)N2CCCC(=O)O)cc1 (stereo unspecified) | -19.8
COc1ccc(/C=C2\SC(=S)N(CC(=O)Nc3ncc(Cc4ccc(C)cc4)s3)C2=O)cc1OC | 1.3
Cc1ccccc1N(CC(=O)Nc1ccc([N+](=O)[O-])cc1)S(C)(=O)=O | -4.6
O=C1C=C/C(=N\S(=O)(=O)c2ccccc2)C=C1Cl | 29.2
Cc1ccc(/C=C2\SC(=S)N(c3ccc(F)cc3)C2=O)cc1 | 16.2
Cc1oc2ccc(OC(C)C(=O)O)cc2c1C(=O)O (stereo unspecified) | 14.7
CC(/C=N/NC(=O)c1cccnc1)c1ccccc1 (stereo unspecified) | 7.7

SMILES | displacement [%]
CC(C)Cc1ccc(C(C)C(=O)Nc2ccc(O)cc2)cc1 (stereo unspecified) | 16.4
CC1CCN(Cn2cnn(CN3CCC(C)CC3)c2=S)CC1 | 10.7
CC(=O)Nc1ccc(N2CCN(C(C)=O)CC2)cc1 | 9.1
Cc1ccc(-c2nc3ncccc3o2)cc1NC(=O)c1cccc(Cl)c1Cl | 1.2
Cc1c(Cl)cccc1NC(=O)CCCOc1ccccc1 | -5.1
Cc1ccc(NC(=O)/C(=C\c2ccc([N+](=O)[O-])o2)NC(=O)c2ccccc2I)cc1 | -10.6
Cc1nc2ccccc2n1S(=O)(=O)c1cccc(Cl)c1Cl | 9.1
COC(=O)c1cc(-c2ccc(C)cc2)nc2ccccc12 | 2.1
O=C1NN(c2ccc(Cl)c(Cl)c2)C(=O)/C1=C/c1cccc([N+](=O)[O-])c1 | 16.5
O=C(/C=C/c1ccc(-c2ccccc2Cl)o1)c1ccc2ccccc2c1 | 8.3
O=S(=O)(Nc1ccc2c(c1)OCCO2)c1ccc2ccccc2c1 | 2.1
COc1ccc(Cl)cc1C(=O)Nc1ccccc1[N+](=O)[O-] | -0.8
O=C1C(NC2CCCCC2)=C(N2CCCCC2)C(=O)c2ccccc21 | 7.4
Cc1c(OCC(N)=O)ccc2c1oc(=O)c1ccccc12 | 6.9
COc1cc(/C=C2/C(=O)NC(=O)N(c3ccccc3F)C2=O)ccc1OCc1ccc(C(=O)O)cc1 | 12.1
COc1ccc(Cc2nc3ccccc3c(=O)n2/N=C/c2cccs2)cc1OC | -4.6
Cc1ccc(-c2cc(C(=O)N/N=C/c3ccccc3)[nH]n2)cc1 | -27.2
Cc1nc(-c2ccccc2)sc1C(=O)Nc1ccc(-c2cn3ccccc3n2)cc1 | 10.6
COc1ccc(OCCNc2cc(N3CCOCC3)ccc2[N+](=O)[O-])cc1 | 14.5
CCOc1cccc(-c2cc(C(=O)Nc3ccc4c(c3)OCO4)c3ccccc3n2)c1 | 0
COc1ccc(CC(=O)Nc2cc([N+](=O)[O-])ccc2C)cc1OC | 3.3
Nc1ccc(-c2ccc(N3C(=O)c4cccc5c(Cl)ccc(c45)C3=O)cc2)cc1 | -1.3
O=C(O)C(Cc1ccccc1)N1C(=O)/C(=C/c2ccc(Cl)cc2Cl)SC1=S (stereo unspecified) | -6.3

SMILES | displacement [%]
O=C1NC(=S)NC(=O)C1=Cc1ccc(O)c(Cl)c1 | -4.2
O=C1NC(=Nc2cccc(O)c2)S/C1=C\C=C\c1ccccc1 | -2.1
CCn1c2ccccc2c2nnc(SCC(=O)NC(C)c3ccccc3)nc21 (stereo unspecified) | 12.8
CCOC(=O)c1c(NC(=O)c2ccc(Cl)c(Cl)c2)sc(C(=O)Nc2ccccc2F)c1C | -11.4
Cc1cccc(N2C(=O)c3ccc(Oc4ccc([N+](=O)[O-])cc4)cc3C2=O)c1C | 12.3
COc1ccc(NC(=O)COc2ccccc2C(C)C)c(OC)c1 | -2
Cc1ccc(C(CC(=O)C(C)C)C2C(=O)c3ccccc3C2=O)cc1 (stereo unspecified) | -8.6
CCOc1ccc(-c2nc3sc4c(c3c(=O)[nH]2)CCCC4)c2ccccc12 | -6.1
CCOC(=O)c1c(C)oc2ccc(OC(=O)c3cccc([N+](=O)[O-])c3)cc12 | 7.5
Cc1ccc(-c2cc(C(=O)O)c3ccccc3n2)c(C)c1 | -2.8
Cc1ccc(C)c2c(N=NC(=O)/C(=C\c3ccccc3)NC(=O)c3ccccc3)c(O)[nH]c12 | 8.8
Cc1nc2sc(C#N)c(N)c2c(C)c1CC(=O)c1ccccc1 | -11.3
O=c1nc2s/c(=C/c3ccc(Cl)c(Cl)c3)c(=O)n2nc1Cc1ccccc1 | 11.7
Cc1cc(C23CC4CC(C2)CC(c2cc(C)c(S(N)(=O)=O)c(C)c2)(C4)C3)cc(C)c1S(N)(=O)=O | 3
COC(=O)c1ccc(C(=O)OC)c(NC(=O)COc2ccc(C)cc2C(C)(C)C)c1 | 17.1
CC(C)(C)C(=O)NCC12C=CC(O1)C1C(=O)N(c3ccccc3)C(=O)C12 (stereo unspecified) | -0.1
Cc1ccc2[nH]c3nc(N/N=C/c4cccs4)nnc3c2c1 | 6
Cc1cccc(N2C(=O)NC(=O)/C(=C\c3cc(Br)c(O)c([N+](=O)[O-])c3)C2=O)c1 | 9.1
CN(C(=O)COc1ccc(Cl)cc1Cl)C1CCS(=O)(=O)C1 (stereo unspecified) | 10.4
